# According to ChEMBL document CHEMBL4888484, “Replenishing the malaria drug discovery pipeline: Screening and hit evaluation of the MMV Hit Generation Library 1 (HGL1) against asexual blood stage Plasmodium falciparum ,using a nano luciferase reporter read-out” (2022):
# In all, about 150,000 compounds went through this assay and about 540 (0.36%) showed an effect of 50% or more. The list shows a part of the results.
# System: Plasmodium falciparum
# Experiment: Primary screen in NF54 nanoGlo assay, in single point, at 2uM, 72h; a lower Z score goes with more inhibition
# Format: functional, Erythrocyte
# Details: timepoint 72 hour
Compound,% Inhibition [%],Z score
CN1CC[C@H]2CC(=O)N(CC3CCC(F)(F)CC3)C[C@H](O)C(C)(C)COCCC[C@H]2C1,3,-0.44
CC(C)c1nc2c(c(OC3CCN(C(=O)NCc4cccc(F)c4)CC3)n1)CCOCC2,4,-0.57
CCC(=O)N1CCN(Cc2ccc(-c3cccc(F)c3)s2)CC1,0,0.05
Cc1ccc(Cl)cc1N1CCN(c2c(C(=O)N3CCCCC3)cnc3ccc(F)cc23)CC1,-8,1.01
CCc1nc2cc(NC(C)=O)cc(C(=O)N[C@H]3CCOC3)c2n1Cc1cccnc1,-8,1.19
CNC(=O)Cc1nc(-c2cccc(Cl)c2)cc(-c2c(C)noc2C)n1,-11,1.57
C[C@H]1CCCCN1CC(=O)NCCCc1ccccc1,-4,0.7
C#CCCC1(CCC(=O)N2CC3(CCC3)c3c(F)cccc32)N=N1,-14,1.72
COCCc1ccc(Oc2ncnc3c2CCCC3)cc1,-21,2.5
O=C(NCc1ccccc1)[C@@H]1COC2(CCN(C(=O)c3ccco3)CC2)N1C(=O)c1ccc(F)cc1,-6,0.81
O=C(NCCN1CCOCC1)c1nc(CCS(=O)(=O)c2ccc(Cl)cc2)no1,0,0.06
COc1cc(F)ccc1CN1CCC2(CCC(=O)N2)CC1,-4,0.7
Cc1nc(N)sc1CC(=O)NCCn1ccnc1C,-4,0.78
COCc1cc(C(=O)N2CCCC3(CCCCCC3)C2)no1,-13,2.07
CCC#CCN1CCC(CNC(=O)[C@@H]2CCCO2)CC1,-6,1.24
CC1CN(C(=O)C(C)(C)C)CC(C)N1C(=O)c1ccc(C(N)=O)[nH]1 (stereo not given),-11,1.36
N#Cc1c(NC(=O)CN(CCN2CCOCC2)CC(=O)Nc2sc3c(c2C#N)CCC3)sc2c1CCC2,-12,1.87
COc1ccc(N2CCN(C(=O)CN3C(=O)C(C)(C)c4cc(C)ccc43)CC2)cc1,-3,0.45
C[C@@H](c1ccc(F)cc1F)N1CCC(c2nnc3n2CCC3)CC1,-7,0.84
Cc1cc(CC(=O)NC[C@H]2COC3(CCC(C)CC3)O2)n[nH]1 (stereo not given in full),-4,0.6
CCN1CCC2CCC(C1)N2CC(=O)Nc1ccc2c(c1)CCC2 (stereo not given),19,-2.53
Cc1ccc(S(=O)(=O)Nc2cccc(-c3ccc(N4CCCCC4)nn3)c2)cc1,-18,2.4

Compound,% Inhibition [%],Z score
Cc1ccc([C@@H]2c3cccn3CCCN2Cc2cccs2)cc1C,37,-1.82
O=C(C1CCCC1)N1CCCC2CCCC21 (stereo not given),8,-1.19
COc1ccc(CNCC(=O)Nc2ccc3c(c2)OCO3)cc1,9,-1.71
O=C(O)[C@@H]1Cc2ccccc2N1S(=O)(=O)c1ccc2ccccc2c1,-6,1.17
CN(Cc1ncc[nH]1)C(=O)C(F)(F)C(=O)N1CCOCC1,-7,0.67
COc1cccc([C@H]2CC(=O)Nc3c2cnn3C)c1,40,-4.5
Nc1nc(N2CCC[C@H]2c2ccccc2)nc(C(F)(F)F)n1,-8,0.86
Cc1noc(C)c1S(=O)(=O)N(C)Cc1ccccn1,-6,0.82
Cn1cccc1[C@@H](O)CCNS(=O)(=O)c1ccccc1,-17,2.61
Cc1ccc(CN(C)C(=O)NC[C@H]2CC[C@@H](CO)O2)o1,-7,1.29
O=C(Nc1cccc(Br)c1)N1Cc2cccn2-c2ccccc21,-2,0.3
O=C1CC(C(=O)N2CCCCCC2c2ccncc2)CN1CC1CC1 (stereo not given),-5,0.95
C[C@H](Nc1cccc(-c2ncn(C)n2)c1)C1CCC1,1,-0.07
CC(C)CC1(NC(=O)N[C@@H](C)[C@H](O)c2ccc(O)cc2)CC1,1,-0.07
C=CCOC1CCN(C(=O)CCc2cnn(C)c2)CC1,-18,3.54
Cc1nc(-c2nnn(-c3cccc(Cl)c3)c2C)sc1C(=O)NC1CCCC1,-3,0.26
Cc1nn(CC(=O)C(C)(C)C)c(C)c1Br,-13,2.11
Cc1cc(O)n2nc(CC(=O)NCCCn3ccnc3C(C)C)nc2n1,-14,2.16
O=S(=O)(Nc1nc2ncccn2n1)c1cccs1,3,-0.41
O=C(CN1C(=O)CNC1=O)N1CCc2[nH]c3c(Cl)cccc3c2C1,0,0.07
COC(=O)c1cc(-c2ccncc2)n(C)n1,2,-0.45
CC(=O)Nc1ccc(C(=O)N2CCC[C@H](Oc3ccncn3)C2)cc1,5,-0.73

Compound,% Inhibition [%],Z score
C[C@@H](C(=O)N(C)Cc1ccc2c(c1)OCO2)n1cncn1,4,-0.83
O=C(C1CCCC1)N1C[C@@H]2CN(Cc3ccsc3)C[C@]2(C(=O)O)C1,2,-0.42
c1coc(-c2nc(CN3CCOc4ccccc43)cs2)c1,-6,0.54
Cc1cc(C(=O)NC[C@H](O)c2ccc(-c3cccs3)s2)no1,3,-0.43
COc1ccc(S(=O)(=O)N2CCC(C)C2)cc1C1(C)NC(=O)NC1=O (stereo not given),-9,1.08
CS(=O)(=O)NC[C@H]1CCOC2(CCN(C(=O)c3ccc4ccccc4n3)CC2)C1,-8,1.43
CCOc1ccc(C2(O)C(C)[N+]3=C(CCC3)N2c2ccc(OC)cc2)cc1 (stereo not given),-15,1.25
CCOc1ccc(CNC(=O)C2CCN(S(=O)(=O)N(CC(C)C)CC(C)C)CC2)cc1OC,-8,1.32
OCc1ccnc(-c2cccc3cnccc23)c1,-7,1.08
C#CCN(CC#N)C(=O)Cc1ccccc1OC,1,-0.05
C[C@@H](CCc1cccc(F)c1)C(=O)NCC(=O)O,-6,0.87
CN1CCCN(CC(=O)NCc2ccccn2)c2cc(F)ccc21,-6,0.5
Nc1n[nH]c(-c2ccc(Br)o2)n1,4,-0.5
CC(C)c1cc(C(=O)N(C)CCc2cn[nH]c2)n(C)n1,1,-0.17
COc1cccc(Cn2c(=O)c3sccc3n(CC(=O)Nc3ccc(N(C)C)cc3)c2=O)c1,37,-1.71
CCCOc1cc(C)c2c(c1C)C[C@H]([C@H](C)C(=O)N1CCC(O)CC1)CC2,9,-0.99
COc1ccc(NC(=O)c2cn3c(n2)CCCC3)c(OC)c1,-5,0.76
O=C(NC1CCCCC1)[C@H]1CC(=O)N(Cc2cccc(Br)c2)C1,11,-1.33
Cc1noc(CN2CCN([C@H]3CCN(Cc4cccc(F)c4F)C3)C2=O)n1,4,-0.67
Cc1nc2c(c(=O)n1C)CN([C@@H](C)C(=O)NCC(C)C)C2,-8,0.99
CC(C)(C)C(=O)NCCC(=O)OC1(C#N)CCC1,-10,1.41
CN(C)C(=O)OCCN(c1ccc(Br)cc1Cl)S(C)(=O)=O,-11,1.27

Compound,% Inhibition [%],Z score
CC(=O)Nc1ccc(-c2nc(-c3cccnn3)no2)c(C)c1,-22,2.61
Cc1cc(C(C)C)nc(N2CCN(C(=O)NC3C4CCOC4C34CCC4)CC2)n1 (stereo not given),1,-0.2
CCOC(=O)N(C)C1CCN([C@@H](C)c2nc3ccccc3o2)CC1,-7,0.89
Cc1noc(C)c1CC(=O)N1CC[C@H](Oc2cccc(F)c2)C1,1,-0.18
Cc1cccc(OCC(=O)N2CCC[C@H](N(CCCN3CCCC3)C(=O)C(C)C)C2)c1,-6,0.89
CCN1C(=O)COc2ccc(-c3noc([C@H]4CC(=O)N(c5ccc(C)cc5)C4)n3)cc21,2,-0.22
CCN(CC(F)F)C(=O)c1ncccc1Br,-4,0.35
COc1ccc(Cl)cc1C(=O)N1CCCN(c2cc(-c3ccccc3)n[nH]2)CC1,-5,0.53
CC(C)C[C@@H]1NC(=O)[C@@H](c2ccc(O)cc2)NC1=O,-11,1.77
CCn1nc(-c2ccc(C(=O)N(C)Cc3cnn(C)c3)cc2)nc1N(C)C,-6,0.52
COc1ccc(NC(=O)CN2CCC[C@H](c3ncc[nH]3)C2)cc1,8,-1.46
COc1ccc(Cl)cc1CON=C(N)c1cnn(C)c1,13,-2.33
Cn1nccc1-c1cncc(CNC(=O)c2ccncc2F)c1,8,-0.99
O=C(CN1CCN(Cc2ccccc2)CC1)N1c2ccccc2CCc2ccccc21,-7,0.65
COc1nccnc1N1CCNC(=O)C1,-9,1.61
O=S(=O)(Nc1cccc(-c2nc3ccccc3s2)c1)c1ccc(F)c(Cl)c1,-11,1.42
O=C(Nc1ncc(C2(O)CCCCC2)s1)c1cccc2nccn12,-6,0.9
CCC(CNC1CCC(=O)NC12CCC2)c1ccccc1 (stereo not given),-3,0.69
COC[C@](C)(CCO)NC(=O)Nc1ccc(F)c(Br)c1,-6,0.5
